From paper PMC4336329 (PLoS ONE, 2015)
Out of some 310,000 compounds screened, about 14,000 (4.5%) showed an effect of 50% or more. Effects have a minus sign here. This is one part of the list.

What follows are compounds tested against human ether-à-go-go-related gene (hERG) potassium channel (human, UniProt Q12809) (assay: primary screen, population patch clamp on CHO cells stably expressing hERG).
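Also: peak tail current of the secondary pulse compared with the same well before compound.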

Sequence of human ether-à-go-go-related gene (hERG) potassium channel (Q12809 whole entry, looked up): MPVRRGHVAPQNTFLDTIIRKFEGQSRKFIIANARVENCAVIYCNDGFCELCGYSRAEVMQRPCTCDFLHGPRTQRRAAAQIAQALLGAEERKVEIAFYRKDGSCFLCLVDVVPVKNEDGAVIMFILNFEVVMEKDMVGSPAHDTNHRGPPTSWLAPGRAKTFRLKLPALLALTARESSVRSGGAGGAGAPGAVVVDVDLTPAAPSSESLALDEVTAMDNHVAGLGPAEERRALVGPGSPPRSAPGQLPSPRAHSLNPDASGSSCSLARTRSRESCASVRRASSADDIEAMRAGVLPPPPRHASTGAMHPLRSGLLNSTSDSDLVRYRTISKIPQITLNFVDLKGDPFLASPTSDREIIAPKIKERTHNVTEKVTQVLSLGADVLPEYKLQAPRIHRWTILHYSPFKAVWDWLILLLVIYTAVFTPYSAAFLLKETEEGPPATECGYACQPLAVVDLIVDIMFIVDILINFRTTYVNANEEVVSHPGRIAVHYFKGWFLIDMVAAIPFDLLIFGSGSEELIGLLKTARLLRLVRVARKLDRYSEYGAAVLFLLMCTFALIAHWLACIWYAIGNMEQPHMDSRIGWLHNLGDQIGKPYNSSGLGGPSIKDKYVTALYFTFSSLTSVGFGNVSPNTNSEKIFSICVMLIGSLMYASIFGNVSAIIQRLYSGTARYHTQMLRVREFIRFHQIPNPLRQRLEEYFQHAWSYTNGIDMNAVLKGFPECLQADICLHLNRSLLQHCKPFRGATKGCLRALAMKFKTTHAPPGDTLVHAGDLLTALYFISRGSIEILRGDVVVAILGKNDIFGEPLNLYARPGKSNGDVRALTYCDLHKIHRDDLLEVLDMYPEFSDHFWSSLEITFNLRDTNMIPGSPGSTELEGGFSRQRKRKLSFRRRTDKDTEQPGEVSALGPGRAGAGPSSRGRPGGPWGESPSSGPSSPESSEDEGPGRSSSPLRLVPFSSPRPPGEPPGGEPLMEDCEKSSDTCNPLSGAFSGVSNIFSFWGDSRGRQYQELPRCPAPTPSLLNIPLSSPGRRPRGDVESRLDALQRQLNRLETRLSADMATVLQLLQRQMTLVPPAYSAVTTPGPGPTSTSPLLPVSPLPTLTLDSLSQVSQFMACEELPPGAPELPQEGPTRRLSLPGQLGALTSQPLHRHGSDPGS

| Compound | hERG current change (%, negative = inhibition) at 10uM [%] |
| --- | --- |
| C=CCc1cc(C)ccc1OCCCn1ccnc1.O=C(O)C(=O)O | -6.54 |
| CCCN(CC(=O)Nc1ccccc1C)C(=O)c1cccc(S(=O)(=O)N2CCN(c3ccccc3)CC2)c1 | -22 |
| CCCc1nnc(SCC(=O)Nc2ccc(OC)cc2)n1N | 3.82 |
| CC(=O)c1cccc(NC2c3ccccc3C(=O)N2Cc2ccco2)c1 (stereo not drawn) | -13.2 |
| COC(=O)c1cc(=O)n(Cc2cccs2)c(=Nc2ccccc2)s1 | -0.229 |
| CSc1ccccc1NC(=O)c1ccccc1N(C)S(C)(=O)=O | -14.1 |
| CCC1(C)Cc2c(sc3nnn(CC(=O)Nc4cccc5ccccc45)c(=O)c23)CO1 (stereo not drawn) | 3.09 |
| CCc1ccc2c(CC(=O)Nc3nnc(C4CC4)s3)coc2c1.CN(C)C=O | 2.39 |
| CCCCn1c(=N)c(S(=O)(=O)c2ccc(Br)cc2)cc2c(=O)n3cccc(C)c3nc21 | 13 |
| Cc1ccccc1C(=O)c1cccn1CC(=O)NCCCc1ccccc1 | 9.69 |
| COc1cscc1C(=O)O | -5.6 |
| O=C(CCc1nc2ccccc2s1)N1CCN(c2ccccc2)CC1 | -29 |
| Cc1ccc(-c2nnc(COC(=O)c3ccco3)o2)cc1 | 4.77 |
| C=CCc1cccc2cc(C(=O)NC3CCCCC3)c(=O)oc12 | 0.33 |
| Cc1ccc(C2=[N+]([O-])C3(CCCCC3=O)N(O)C2(C)C)cc1 (stereo not drawn) | 5.93 |
| COc1ccc(CCN(C)C(=O)C2CCN(Cc3ccccc3)CC2)cc1OC.O=C(O)C(=O)O | 3.36 |
| O=C(COC(=O)c1ccccc1Oc1ccccc1)NC1CCS(=O)(=O)C1 (stereo not drawn) | -0.607 |
| CC(OC(=O)c1ccc(Cl)cc1)C(=O)NCc1ccc2c(c1)OCO2 (stereo not drawn) | -10.9 |
| NC(=O)c1ccc(NC(=O)CN2CCN(c3ccc(Cl)cc3)CC2)cc1 | -51.3 |
| COc1cccc(-n2c(COc3ccccc3C)nnc2SCC(=O)O)c1 | 1.56 |
| Br.CC[N+](CC)(CC)C/C=C/CN1CCCCC1.[Br-] | 1.87 |
| CCC(CC)NC(=O)COC(=O)c1ccc2c(c1)C(=O)N(Cc1ccco1)C2=O | 20 |
| Cc1[nH][nH]c(=O)c1C(c1cc2c(cc1Br)OCO2)c1c(C)[nH][nH]c1=O | 36.4 |

| Compound | hERG current change (%, negative = inhibition) at 10uM [%] |
| --- | --- |
| CN(C)Cc1cccc([N+](=O)[O-])c1O | 2.53 |
| Cc1ccc(NC(=O)C(=O)NCc2ccc(/C=C(/C#N)C(=O)NCc3cccnc3)o2)cc1C | -9.08 |
| COc1ccc(C(CNc2ccc(S(=O)(=O)N3CCCC3)cc2[N+](=O)[O-])N2CCCC2)cc1 (stereo not drawn) | -7.1 |
| CCCNC(=S)NC1CC2CCCC(C1)N2Cc1ccc(F)cc1 (stereo not drawn) | -60.6 |
| Cc1ccc(C(=O)OC2CCCN(C)C2)cc1.Cl (stereo not drawn) | -2.08 |
| Cc1cccc2sc(NC(=O)CSc3nnnn3C)nc12 | -24.4 |
| O=C(O)c1cnn2c1C(=O)N(Cc1cccs1)CC2 | 16.5 |
| COCCn1nnnc1C(c1cccs1)N1CCCC(C)C1.Cl (stereo not drawn) | 17.9 |
| Cc1ccc(S(=O)(=O)NC2CCCCCCC2)cc1 | -0.211 |
| CC1(C)CC(=O)CC(=Nc2ccc3[nH]c(=O)[nH]c3c2)C1 | -0.138 |
| Cc1c(CCOC(=O)c2cc([N+](=O)[O-])cc([N+](=O)[O-])c2)sc[n+]1CCCCS(=O)(=O)[O-] | 23.4 |
| CC1(C)C(=O)Nc2ccccc2N1C(=O)CSc1ncccn1 | -45.9 |
| CCC(Sc1ccc2nnc(-c3ccc(F)cc3)n2n1)C(=O)OC (stereo not drawn) | -48.3 |
| C/C(CC(=O)Nc1cc(C)ccn1)=N\NC(=O)c1ccncc1 | 19.7 |
| COc1ccc(CCN2CCCC(CN(C)Cc3cc(Cl)c(O)c(OC)c3)C2)cc1 (stereo not drawn) | -65.7 |
| COc1ccc(OC)c(NS(=O)(=O)c2cc(OC)ccc2OC)c1 | -2.14 |
| Cc1cc(C)c(C)c(S(=O)(=O)NCCN2CCOCC2)c1C | -9.48 |
| COc1ccc(NC(=O)C/C(C)=N/NC(=O)c2cnccn2)cc1 | 15.5 |
| COc1ccccc1NC(=O)c1ccc(NC(=O)COC(=O)C(C)C)cc1 | 4.37 |
| CCN(CC)C1CCCCC1NS(=O)(=O)c1ccc(Cl)cc1 (stereo not drawn) | -1.5 |
| C/C(=N\OC(=O)Nc1ccc(Cl)cc1)c1ccc(F)c(F)c1 | 5.54 |
| O=C(NCCCN1CCCCC1)c1ccc(CS(=O)c2ccc(Cl)cc2)o1 (stereo not drawn) | -15.2 |
